The results in this text go back to PMC10668032.

Some of the results follow. At the low end of the ranking the order means little.

The assay has as its target SIX1-Q177R homeodomain (UniProt Q15475). The assay can be described thus: universal protein binding microarray. The settings on record: Universal all-10-mer PBM (8x60K, AMADID 030236), 300 nM GST-tagged protein, Alexa Fluor 488 anti-GST; buffer, salt, pH and temperature not stated; high values mean tight binding; most listed sequences are background and not binding sites; double strand, one strand shown.
In the case of AGAATGAG, the binding signal was -0.145 E-score.

Take ACAGTGTG: the binding signal is 0.139 E-score.

For CCCTGGCA, the binding signal came out at 0.0435 E-score.

With CGATGGGA, the binding signal was -0.171 E-score.

For the sequence AGGACTAG, the binding signal is -0.103 E-score.

For the sequence ACAAGTAT, the binding signal was -0.000825 E-score.

As for CAATATCG, the binding signal is -0.198 E-score.

With ACCACCCG, the binding signal amounted to 0.14 E-score.

As for CCATGCCC, the binding signal was -0.0487 E-score.

Regarding CCAAAAGA, the binding signal is -0.0849 E-score.

Turning to CGAGAGAA, the binding signal was -0.215 E-score.

On to AAACTGAT, for which the binding signal is -0.0158 E-score.

On to AGGCCACC, for which the binding signal was -0.154 E-score.

Take ACACTTGA: the binding signal stood at 0.376 E-score.

Turning to AAAATTAA, the binding signal was -0.215 E-score.

With CAGTGAGG, the binding signal was -0.0361 E-score.

In the case of CCTGTGGA, the binding signal is -0.127 E-score.

Regarding AGCTGGTG, the binding signal was found to be 0.229 E-score.

With AACCGATA, the binding signal worked out at 0.0716 E-score.

In the case of AAGATACC, the binding signal stood at 0.225 E-score.

With AGCTTAGG, the binding signal was -0.0717 E-score.

Turning to CGTTTTTA, the binding signal is -0.0972 E-score.

Regarding GGGGGCAA, the binding signal was -0.182 E-score.

With CGATAAGA, the binding signal was -0.216 E-score.

As for GATTAGTA, the binding signal is 0.0964 E-score.

AGAGTCCG: the binding signal was -0.154 E-score.

As to GGAGGAAA, the binding signal is -0.204 E-score.

Consider TGACGCAA, for which the binding signal was -0.0998 E-score.

For the sequence CCCCTCTC, the binding signal was 0.107 E-score.

Take CGGAAGTC: the binding signal is -0.197 E-score.

Regarding AACTCAAC, the binding signal is -0.0053 E-score.

As to ACGTACGA, the binding signal was -0.188 E-score.

CTGTGTGC: the binding signal came out at 0.0209 E-score.

Turning to CCCTGGCC, the binding signal is -0.00771 E-score.

For GATAAGCA, the binding signal was found to be 0.0954 E-score.

Consider ATGTAAGA, for which the binding signal is -0.0291 E-score.

As to GAAACCCA, the binding signal came out at 0.126 E-score.

For the sequence CCGGCTAC, the binding signal was found to be 0.0969 E-score.

For ACGTAATA, the binding signal is -0.0915 E-score.

Regarding AATCTATA, the binding signal is -0.152 E-score.

For CATGTGCG, the binding signal was -0.103 E-score.

For GCTGGTTA, the binding signal is -0.0378 E-score.

Regarding AAACAACG, the binding signal is -0.0251 E-score.

As to GACCTAAC, the binding signal was -0.0784 E-score.

For the sequence GCACAAAA, the binding signal is -0.143 E-score.

Regarding AGGCTAGG, the binding signal is -0.0794 E-score.

As for TCGCATAA, the binding signal is -0.1 E-score.

Take ATCCGCGC: the binding signal stood at 0.0799 E-score.

In the case of ACTTAAAG, the binding signal is -0.0104 E-score.

Regarding CGGTAGAG, the binding signal was 0.126 E-score.

With AGCCGCCC, the binding signal was -0.00833 E-score.

For the sequence CAGTCTAA, the binding signal was -0.023 E-score.

On to AAAGAACA, for which the binding signal was found to be 0.14 E-score.

In the case of AGCCACAA, the binding signal is -0.196 E-score.

As for CTTCTAGC, the binding signal was -0.145 E-score.

Turning to ACTAGAAA, the binding signal was -0.154 E-score.

Regarding GTCGAGAC, the binding signal is 0.0988 E-score.

GAAGTTAC: the binding signal was -0.133 E-score.

Regarding AGAGACGG, the binding signal was -0.0269 E-score.

For the sequence ACTGAGAC, the binding signal was -0.137 E-score.

CAGTGAGC: the binding signal was -0.211 E-score.

Regarding GATTTCCC, the binding signal was -0.0946 E-score.

For CTACCCCC, the binding signal came to 0.268 E-score.

For ATGACTGA, the binding signal was -0.173 E-score.

On to CGGCTAAG, for which the binding signal is -0.134 E-score.

Regarding ACAGCGCT, the binding signal was -0.172 E-score.

With AATGCAAA, the binding signal is -0.226 E-score.

In the case of ATCGCTCC, the binding signal is -0.171 E-score.

Take ACTGCAAC: the binding signal was determined as 0.056 E-score.

Take AGATTAGA: the binding signal is -0.136 E-score.

On to AGCCCATG, for which the binding signal is -0.178 E-score.

In the case of GCTCGAGC, the binding signal was -0.0158 E-score.

On to CTCATACA, for which the binding signal came to 0.101 E-score.

As to GAATTGTA, the binding signal was -0.122 E-score.

As to GCACTAAA, the binding signal was -0.00693 E-score.

Turning to ACTTCCAA, the binding signal was -0.134 E-score.

Take GTGGCTGA: the binding signal is -0.0464 E-score.

For the sequence ACTCGGAT, the binding signal was 0.124 E-score.

Turning to AATGATCC, the binding signal turned out to be 0.17 E-score.

Regarding CTCATAGC, the binding signal was -0.297 E-score.

With ATCAAGAG, the binding signal is -0.101 E-score.

For CGTCTAAG, the binding signal was 0.0324 E-score.

CACCATGC: the binding signal turned out to be 0.297 E-score.

For the sequence ATCAGAAC, the binding signal turned out to be 0.0286 E-score.

AGGTATAT: the binding signal was -0.034 E-score.

CTCGGGCC: the binding signal is -0.0314 E-score.

With GCGCTCGA, the binding signal is -0.127 E-score.

For GGGAGAAA, the binding signal is -0.165 E-score.

AGTCAGGA: the binding signal is -0.0668 E-score.

Consider CATCACCC, for which the binding signal is 0.0258 E-score.

Regarding ATGGAACG, the binding signal is -0.23 E-score.

Turning to AAAATCTA, the binding signal is -0.155 E-score.

With TAGGGCCA, the binding signal is -0.298 E-score.

For GACCAGCA, the binding signal came out at 0.04 E-score.

As to GAAGCAAC, the binding signal was -0.0823 E-score.

Regarding AGATATCG, the binding signal was -0.135 E-score.

Turning to ATAAGCCC, the binding signal is -0.148 E-score.

On to ATTGCACC, for which the binding signal worked out at 0.296 E-score.

As for AGAGAGAA, the binding signal was -0.186 E-score.

In the case of TCATTGAA, the binding signal came to 0.0886 E-score.

With AAATATAC, the binding signal is -0.0479 E-score.

Consider ACAACGCT, for which the binding signal is -0.149 E-score.

For GACCCACA, the binding signal turned out to be 0.107 E-score.

With GCCATCGC, the binding signal is -0.119 E-score.

For the sequence CGACTAGC, the binding signal is -0.063 E-score.

TAAGAATA: the binding signal is -0.12 E-score.

Consider AATTTATC, for which the binding signal is -0.0386 E-score.

For AAAGCGGA, the binding signal came out at 0.00272 E-score.

In the case of AAACGCAC, the binding signal is 0.115 E-score.

For the sequence ATCCTCGC, the binding signal was 0.0903 E-score.

On to AACTCGGA, for which the binding signal is -0.0262 E-score.

On to AAGTGACA, for which the binding signal was determined as 0.135 E-score.

Take CCGGTCGA: the binding signal is -0.0602 E-score.

With ACATAGTA, the binding signal was 0.0569 E-score.

Take CCCACCCC: the binding signal was 0.304 E-score.

On to GCTAAACC, for which the binding signal is -0.147 E-score.

On to CGGGGTAG, for which the binding signal was found to be 0.221 E-score.

For the sequence CAATGTGC, the binding signal is -0.239 E-score.

As to GGCAACCC, the binding signal amounted to 0.0693 E-score.

For AAATCACT, the binding signal is -0.235 E-score.

Regarding GATGTAGA, the binding signal is -0.15 E-score.

Turning to CCTAGCCA, the binding signal is -0.199 E-score.

Consider ATACTGTG, for which the binding signal came to 0.0919 E-score.

Take AAAGTGGC: the binding signal is -0.277 E-score.

On to GAGGGGGC, for which the binding signal was -0.115 E-score.

AGCGCAAA: the binding signal was -0.0983 E-score.

Take ACCAACGT: the binding signal is -0.0189 E-score.

Consider GAGCCTGC, for which the binding signal is -0.185 E-score.

For ACTCGCAG, the binding signal worked out at 0.0165 E-score.

For the sequence AAGCGTCA, the binding signal is 0.0298 E-score.

As to GAGAGCGA, the binding signal is -0.0819 E-score.

On to CTGATACA, for which the binding signal was 0.24 E-score.

Turning to CGGCTGGC, the binding signal is -0.21 E-score.

As for GCTAGCAC, the binding signal amounted to 0.07 E-score.

As for AAGCACCA, the binding signal is 0.24 E-score.

As to CTCTTTAA, the binding signal is -0.134 E-score.

Consider GGTCCCTA, for which the binding signal is -0.129 E-score.

For AGAGCTTG, the binding signal was -0.023 E-score.

Regarding CCACCAGC, the binding signal is -0.141 E-score.

Regarding ACTTCATA, the binding signal is -0.0914 E-score.

With AAAGCACC, the binding signal came to 0.0683 E-score.

CGCTCCGC: the binding signal is -0.251 E-score.

With CATTCCTA, the binding signal was -0.178 E-score.

For the sequence CACATATC, the binding signal stood at 0.0997 E-score.

Regarding CGTAGCGC, the binding signal was -0.211 E-score.

On to AATTTTCA, for which the binding signal was -0.0769 E-score.

As for AGCGGTGC, the binding signal is 0.0934 E-score.

On to CATTTTGC, for which the binding signal was -0.223 E-score.

With GCTATATA, the binding signal is -0.0186 E-score.

In the case of AGGGGTGC, the binding signal turned out to be 0.221 E-score.

Take CAACTATC: the binding signal is -0.333 E-score.

For ATGCGCGA, the binding signal was -0.213 E-score.

Consider ATTCTCAC, for which the binding signal is -0.0562 E-score.

As for GAAATTTC, the binding signal was -0.28 E-score.

On to ACCCGTCT, for which the binding signal was 0.178 E-score.

GGCTGGGA: the binding signal is -0.0856 E-score.

In the case of GTCGTCAC, the binding signal is -0.0501 E-score.

With CCAACGAC, the binding signal was -0.0446 E-score.

With CACGGGAG, the binding signal is 0.17 E-score.

On to CGCCGCCC, for which the binding signal stood at 0.0362 E-score.

For the sequence TAATGGGA, the binding signal was -0.169 E-score.

On to CAAACCGA, for which the binding signal is -0.0212 E-score.

In the case of CAGAGGAC, the binding signal is 0.124 E-score.

Take GACGAATA: the binding signal was -0.122 E-score.

For the sequence ACCCATAT, the binding signal is 0.103 E-score.

CAACTTCA: the binding signal turned out to be 0.0829 E-score.

On to CCGGCAAC, for which the binding signal was found to be 0.0504 E-score.

For AGTAATTC, the binding signal is -0.0639 E-score.

Regarding CTCTGACC, the binding signal was -0.0793 E-score.

In the case of AAGAAGGC, the binding signal is -0.241 E-score.

TGACACCA: the binding signal came out at 0.491 E-score.

With ACGTGGTC, the binding signal is -0.152 E-score.
